Experimental data taken from PubChem BioAssay AID596 (National Center for Advancing Translational Sciences (NCATS), 2007).
The campaign covered roughly 71,000 compounds. About 1,400 (2%) were called active. The inconclusive results got no clear call from the source; some entries with a clear call stand among them for comparison. Calls come from the whole dose curve; as a rule, active = well fitted curve in the direction sought with a large enough effect; inconclusive = small, poorly fitted or top-dose-only effect; inactive = no such curve, though single readings can be large or run the other way. Potencies beside an inconclusive call are fits to weak or partial responses and may not hold up.

biological target: Microtubule-associated protein tau (Homo sapiens) (UniProt P10636); experiment: qHTS Assay for Tau Filament Binding; conditions: recombinant tau filaments, thioflavin S fluorescence, 15 h, filaments grown with octadecylsulfate alongside compound; series mostly up to 57.1 µM;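 note: actives lower thioflavin S fluorescence by blocking filaments or displacing dye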
Chain of UniProt P10636 (P10636 whole entry, looked up): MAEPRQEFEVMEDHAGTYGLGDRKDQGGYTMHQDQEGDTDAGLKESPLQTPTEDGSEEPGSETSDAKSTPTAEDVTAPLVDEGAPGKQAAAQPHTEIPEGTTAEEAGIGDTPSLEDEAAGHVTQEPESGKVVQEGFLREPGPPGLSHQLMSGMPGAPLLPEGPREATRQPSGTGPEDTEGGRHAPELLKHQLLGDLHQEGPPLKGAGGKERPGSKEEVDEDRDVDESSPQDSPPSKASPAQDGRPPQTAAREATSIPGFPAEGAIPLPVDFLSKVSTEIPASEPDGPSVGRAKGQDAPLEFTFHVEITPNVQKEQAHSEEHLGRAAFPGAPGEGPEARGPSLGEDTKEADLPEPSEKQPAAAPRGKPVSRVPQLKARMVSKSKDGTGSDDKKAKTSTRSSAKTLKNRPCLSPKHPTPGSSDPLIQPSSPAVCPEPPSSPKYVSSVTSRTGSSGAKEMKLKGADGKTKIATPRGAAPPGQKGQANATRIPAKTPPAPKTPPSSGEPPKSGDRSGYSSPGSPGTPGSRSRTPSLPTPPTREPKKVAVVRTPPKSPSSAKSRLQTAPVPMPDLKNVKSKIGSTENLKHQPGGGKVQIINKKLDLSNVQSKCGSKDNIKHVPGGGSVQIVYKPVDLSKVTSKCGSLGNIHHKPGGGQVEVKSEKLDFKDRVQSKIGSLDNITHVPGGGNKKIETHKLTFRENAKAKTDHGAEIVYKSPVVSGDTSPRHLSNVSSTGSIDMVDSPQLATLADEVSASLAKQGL
Procedure, shortened: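 Tau 2 uM in ThS buffer dispensed; compound added; 60 uM ODS added (finals 1 uM tau, 30 uM ODS); 15 h 37 C; fluor ex450/em510.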
% is set by controls: 0 for no effect and ±100 for the full control effect; potency is the fitted concentration of half-maximal effect.

| Structure (SMILES) | Potency | activity change, negative = inhibition |
| --- | --- | --- |
| CCOC(=O)COc1cc2c(C(=O)OCC)c(C)oc2cc1Br | inactive |  |
| CCOC(=O)CC(=O)CSc1nnc2c(n1)[nH]c1ccccc12 | inconclusive: 6.31 µM [decreasing] |  |
| COc1ccc(O)c(-c2c(-c3ccc(Cl)cc3)n[nH]c2C)c1 | inactive |  |
| Cc1ccc(S(=O)(=O)Cc2ccc(C(=O)N3CCN(Cc4ccccc4)CC3)o2)cc1 | inconclusive: 31.6 µM [decreasing] |  |
| CCOC(=O)c1c(NC(=O)Cn2nnc3ccccc32)sc2c1CCC(C)C2 (stereo not given) | inactive |  |
| CCN(Cc1ccncc1)C(=O)[C@@H](CO)c1ccccc1 | inconclusive: 39.8 µM [decreasing] |  |
| CCN1C(=O)/C(=c2\o/c(=C3\C=Cc4ccccc4N3CC)c(=O)n2CC)SC1=S | inconclusive: 0.631 µM [decreasing] |  |
| CCCn1c(=O)c2[nH]c(-c3ccc(OCC(=O)Nc4ccc(C(C)=O)cc4)cc3)nc2n(CCC)c1=O | inconclusive: 39.8 µM [decreasing] |  |
| Cc1nc2ccc(F)cc2cc1C(=O)NCC1CCCO1 (stereo not given) | active: 12.6 µM |  |
| CSc1nsc(SCC(=O)N2CCCc3ccccc32)n1 | inactive |  |
| Cc1cc(NC(=O)Cn2nnc3sc4c(c3c2=O)CCC(C(C)(C)C)C4)no1 (stereo not given) | inconclusive: 31.6 µM [decreasing] |  |
| O=C(O)c1cc([N+](=O)[O-])ccc1NCCCc1ccccc1 | inconclusive: 39.8 µM [decreasing] |  |
| O=C(COC(=O)c1cccc(S(=O)(=O)N2CCOCC2)c1)Nc1ccc2c(c1)OCO2 | inconclusive: 39.8 µM [decreasing] |  |
| OC[C@@H](O)COc1cccc2ccccc12 | inconclusive: 39.8 µM [decreasing] |  |
| O=C(COC(=O)c1cccnc1)c1ccc(Cl)cc1 | inconclusive: 15.8 µM [decreasing] |  |
| Cc1nc2c(O)cccc2c(=O)[nH]1 | inconclusive: 39.8 µM [decreasing] |  |
| CN1CCN(C(=O)CSc2nc(-c3cccs3)cc(-c3cccs3)c2C#N)CC1 | active: 7.94 µM |  |
| CCOc1ccc(NCc2nnc(SCC(=O)Nc3cc(C)on3)n2-c2ccc(OC)cc2)cc1 | active: 15.8 µM |  |
| O=c1[nH]c2ccccc2c2nc3ccccn3c12 | inactive |  |
| CCC(=O)N1CCN(c2ccccc2NC(=O)COc2cc(C)ccc2C(C)C)CC1 | inactive |  |
| N[C@H](C(=O)O)[C@@H]1C[C@@H]1C(=O)O | inconclusive: 39.8 µM [decreasing] |  |
| Cc1ccc(-c2cc(-c3ccc4c(c3)OCO4)c(C#N)c(N)n2)o1 | active: 12.6 µM |  |

| Structure (SMILES) | Potency | activity change, negative = inhibition |
| --- | --- | --- |
| CCNc1ncc2nc(-c3ccc(F)cc3)c(=O)n(CCc3ccccc3)c2n1 | inconclusive: 20 µM [decreasing] |  |
| CN(C)c1ccc(NC(=O)Nc2ccc3snnc3c2)cc1 | inconclusive: 31.6 µM [decreasing] |  |
| Cc1ccc2nc3c(cc(C(=O)NCc4ccccc4)c(=N)n3CCCn3ccnc3)c(=O)n2c1 | active: 0.501 µM |  |
| Cc1cccn2c(=O)c3cc(C(=O)NCC4CCCO4)n(C)c3nc12 (stereo not given) | inactive |  |
| Cc1ccc(CN2C(=O)C(C)(C)Oc3ccc(C(=O)N4CCCCC4)cc32)cc1 | inactive |  |
| CCc1ccc2oc(-c3cc(N)cc(C)c3O)nc2c1 | active: 12.6 µM |  |
| CC1=C(/C=C/C(C)=C/C=C/C(C)=C/C=O)C(C)(C)CCC1 | active: 5.01 µM |  |
| CCOC(=O)C(C(C)=O)c1c(Br)c(O)c(O)c2c(C(=O)c3ccc(C)cc3)coc12 (stereo not given) | active: 10 µM |  |
| Cn1cnnc1SCc1ccc(-c2ccc(Br)cc2)o1 | inconclusive: 15.8 µM [decreasing] |  |
| COc1ccc(CCn2nnnc2C(c2ccc(C)cc2)N2CCN(C)CC2)cc1OC (stereo not given) | inactive |  |
| CCOC(=O)c1c(C)c(C(=O)Nc2ccc(N(C)C)cc2)c(C)n1CC | active: 15.8 µM |  |
| CCOc1ccc(N2C(=O)CC(/C=C3/N(C)c4ccccc4C3(C)C)C2=O)cc1 (stereo not given) | active: 25.1 µM |  |
| COc1cccc(C2=NOC(C(=O)Nc3cc(C)nn3-c3ccccc3)C2)c1OC (stereo not given) | inconclusive: 31.6 µM [decreasing] |  |
| CCOC(=O)c1cc2c(=O)n3ccccc3nc2n(CC(C)C)c1=NC(=O)c1ccco1 | inconclusive: 5.01 µM [decreasing] |  |
| CC(C)c1cccc2nc3c(c([Si](C)(C)C(C)(C)C)c12)Cn1c-3cccc1=O | inconclusive: 20 µM [decreasing] |  |
| COc1cc(C[C@H]2C(=O)OC[C@@H]2Cc2ccc(OC)c(OC)c2)ccc1O | inconclusive: 39.8 µM [decreasing] |  |
| Nc1nc2ccc([N+](=O)[O-])cc2s1 | inconclusive: 39.8 µM [decreasing] |  |
| Cc1cc(C(=O)OCC(=O)N(C)C2CCS(=O)(=O)C2)c(C)n1-c1ccccc1 (stereo not given) | inactive |  |
| CC(C)c1ccc2oc(-c3ccc(N)cc3)nc2c1 | inconclusive: 3.98 µM [decreasing] |  |
| COc1ccc(-c2cc(C(F)F)n3ncc(C(=O)NCCCN4CCCC4=O)c3n2)cc1 | inconclusive: 12.6 µM [decreasing] |  |
| COCCn1c(=O)c(-c2ccc(F)cc2)nc2cnc(N(C)C)nc21 | inactive |  |
| O=C(c1ccc(OCCN2CCCCC2)cc1)c1c(-c2ccc(O)cc2)sc2cc(O)ccc12 | inconclusive: 5.01 µM [decreasing] |  |

| Structure (SMILES) | Potency | activity change, negative = inhibition |
| --- | --- | --- |
| CCc1cc(=O)oc2cc(OCC(=O)O)c(Cl)cc12 | inconclusive: 39.8 µM [decreasing] |  |
| CCOC(=O)c1sc2nc(-c3ccco3)c3c(c2c1N)CC(C)(C)OC3 | active: 12.6 µM |  |
| CN(C)c1ccc(-c2ccncc2)cc1 | inactive |  |
| Fc1ccc(Nc2nc(-c3ccoc3)nc3ccccc23)cc1 | active: 12.6 µM |  |
| Nc1ccc(N2CCCCC2)cc1N1CCCCC1 | active: 7.94 µM |  |
| c1ccc(N2CCN(CCCOc3ccc4c(c3)OCO4)CC2)cc1 | inconclusive: 39.8 µM [decreasing] |  |
| NC(=O)c1cc2ccc(O)cc2oc1=Nc1ccccc1 | inactive |  |
| CN(C)c1ccc(CN2CCCCCC2)cc1 | inconclusive: 6.31 µM [decreasing] |  |
| Cc1ccccc1-c1nc(CN2CCC(C(=O)N3CCN(c4ccccn4)CC3)CC2)c(C)o1 | inactive |  |
| N[C@@H](C(=O)O)c1ccc(O)c(C(=O)O)c1 | inconclusive: 39.8 µM [decreasing] |  |
| CC(=NCCN1CCOCC1)C1=C(O)c2ccccc2C1=O | inactive |  |
| COc1ccc2[nH]cc(CCNc3ncnc4ccc(-c5cccnc5)cc34)c2c1 | inconclusive: 31.6 µM [decreasing] |  |
| COc1ccc(OC)c(NC(=O)CCN2CCCCC2)c1 | inactive |  |
| O=C1C[C@H](c2ccccc2)Oc2cc(O)cc(O)c21 | inconclusive: 39.8 µM [decreasing] |  |
| C[C@@](Cc1ccccc1)(NC(=O)CN)c1ccccc1 | inconclusive: 39.8 µM [decreasing] |  |
| Cc1cccc(NC(=O)C2CCN(S(=O)(=O)c3cccc4cccnc34)CC2)c1 | inactive |  |
| CCc1cccc(NC(=O)Nc2cccs2)c1 | inconclusive: 39.8 µM [decreasing] |  |
| COC(=O)CCCC(=O)O |  | inactive: -7.1% [at 11.4 µM] |
| O=C(CSCc1ccc(Cl)cc1)c1ccco1 | inconclusive: 25.1 µM [decreasing] |  |
| Cc1nc2c(OCc3ccccc3)cccn2c1CC#N | inconclusive: 39.8 µM [decreasing] |  |
| CC1Cc2ccccc2N1S(=O)(=O)c1cccs1 (stereo not given) | inconclusive: 25.1 µM [decreasing] |  |
| COc1ccc(NC(=O)Cc2cccs2)c(OC)c1 | active: 3.16 µM |  |

| Structure (SMILES) | Potency | activity change, negative = inhibition |
| --- | --- | --- |
| COc1ccc(-c2coc3cc(O)cc(O)c3c2=O)cc1 | inconclusive: 39.8 µM [decreasing] |  |
| Cc1cc2nnc(SC3CCOC3=O)n2c2ccccc12 (stereo not given) | inactive |  |
| C[C@H](NC(=O)/C(C#N)=C/c1ccc(O)c(O)c1)c1ccccc1 | inconclusive: 39.8 µM [decreasing] |  |
| N#Cc1ccccc1OC[C@H](O)CNCCNC(=O)Nc1ccccc1 | inconclusive: 39.8 µM [decreasing] |  |
| Cc1cc(-c2ccccc2)nc2cc(C(N)=O)nn12 | inconclusive: 39.8 µM [decreasing] |  |
| Cc1ccc(C(=O)CSc2nnc(COc3cccc4cccnc34)o2)cc1 | inactive |  |
| Cn1cccc1C1NC(=O)c2c(sc3c2CCC(C(C)(C)C)C3)N1 (stereo not given) | inconclusive: 39.8 µM [decreasing] |  |
| COc1ccccc1N1CCN(CCN2C(=O)CC3(CCCC3)CC2=O)CC1 | inconclusive: 39.8 µM [decreasing] |  |
| Cc1ccccc1N1C(=O)C(Cl)=C(N2CCCCCC2)C1=O | active: 12.6 µM |  |
| CC[C@H](C)N(C)C(=O)c1cc2ccccc2c(-c2ccccc2Cl)n1 | inconclusive: 39.8 µM [decreasing] |  |
| Cc1cc(-c2nnc(-c3cc4ccccc4oc3=O)o2)c(C)n1-c1ccccc1 | active: 3.16 µM |  |
| CN1CCN(c2ncc3nc(-c4cccc(C#N)c4)c(=O)n(CCc4ccccc4)c3n2)CC1 | inconclusive: 5.01 µM [decreasing] |  |
| Cc1cc(C(=O)CSc2nc3ccccc3[nH]2)c(C)n1C | inactive |  |
| O=C(O)c1[nH]c2ccccc2c1NS(=O)(=O)Cc1ccccc1 | inconclusive: 31.6 µM [decreasing] |  |
| O=C(CC1Oc2ccccc2NC1=O)NCc1ccccc1 (stereo not given) | inactive |  |
| COc1cccc(Nc2ncc3nc(-c4cccs4)c(=O)n(C[C@H]4CCCO4)c3n2)c1 | inactive |  |
| CCCOc1ccccc1NC(=O)CC1Nc2ccccc2NC1=O (stereo not given) | inconclusive: 39.8 µM [decreasing] |  |
| CCn1c(CNc2ccc(OC)cc2)nnc1SCC(=O)c1ccc(OC)cc1 | inconclusive: 39.8 µM [decreasing] |  |
| CC(C)(c1cc(Br)c(O)c(Br)c1)c1cc(Br)c(O)c(Br)c1 | inconclusive: 39.8 µM [decreasing] |  |
